# The campaign covered roughly 110,000 compounds. About 230 (0.21%) showed an effect of 50% or more. The list shows a part of the results.
# Biological target: DPAP1 (Plasmodium falciparum, UniProt Q8IIJ9)
# Experiment: primary screen, percent inhibition; read by cleavage of a fluorogenic dipeptide substrate; higher = more effect of the substance
# Design: species or system P. falciparum D10 trophozoite lysates; single well
# 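Note: 30 min substrate incubation versus DMSO and 10 µM JCP410 controls.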
# Chain of DPAP1 (Q8IIJ9 whole entry, looked up): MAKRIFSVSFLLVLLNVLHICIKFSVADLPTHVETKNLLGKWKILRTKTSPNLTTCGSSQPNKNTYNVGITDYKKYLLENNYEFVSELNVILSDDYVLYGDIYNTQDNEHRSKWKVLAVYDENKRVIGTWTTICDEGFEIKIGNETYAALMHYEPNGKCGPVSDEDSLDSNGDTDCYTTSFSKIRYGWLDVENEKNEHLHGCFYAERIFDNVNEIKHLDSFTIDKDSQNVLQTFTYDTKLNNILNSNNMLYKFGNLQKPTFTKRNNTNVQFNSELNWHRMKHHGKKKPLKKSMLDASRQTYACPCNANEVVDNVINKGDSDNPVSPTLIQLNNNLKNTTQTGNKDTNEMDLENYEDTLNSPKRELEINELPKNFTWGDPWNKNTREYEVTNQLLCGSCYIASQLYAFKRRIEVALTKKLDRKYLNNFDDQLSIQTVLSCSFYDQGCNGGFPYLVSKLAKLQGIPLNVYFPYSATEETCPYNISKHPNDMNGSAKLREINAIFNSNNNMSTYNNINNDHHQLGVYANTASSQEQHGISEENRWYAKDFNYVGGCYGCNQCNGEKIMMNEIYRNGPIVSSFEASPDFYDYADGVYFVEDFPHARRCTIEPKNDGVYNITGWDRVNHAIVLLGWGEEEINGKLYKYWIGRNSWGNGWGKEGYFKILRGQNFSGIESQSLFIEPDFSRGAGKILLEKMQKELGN
row,Compound,% Inhibition @ 10 uM [%]
1,O=C1c2ccccc2-c2nnc(-c3ccc(Cl)cc3)cc21,-0.736
2,CC(=O)c1c(-c2ccccc2)nc2n(Cc3ccccc3)c3ccccc3n12,5
3,COc1cccc(S(=O)(=O)NCc2ccc(C(=O)Nc3ccc(Br)cc3F)cc2)c1,-0.545
4,COc1ccc(NC2=C(Cl)C(=O)N(Cc3ccccc3)C2=O)c(OC)c1,-0.661
5,COc1ccc(-c2nc(-c3cc4ccc(O)cc4oc3=O)cs2)cc1,0.23
6,Cc1nn(C)c(C)c1C1C(C#N)=C(N)N(c2cccc(Br)c2)C2=C1C(=O)CC(C)(C)C2 (centres unmarked),0.722
7,CC(=O)c1ccc(C(=O)N(CCN(C)C)c2nc3c(C)c(C)ccc3s2)cc1,6.32
8,CC[C@H](C)[C@H](NC(=O)c1cccc(O)c1)C(=O)N[C@@H](CCc1ccccc1)C(=O)CO,6.4
9,Cc1ccccc1OCC(=O)NC1CC2CCC1C2 (centres unmarked),4.57
10,N#CC1=C(N)Oc2c(O)nc(O)nc2C1c1ccccc1 (centres unmarked),-2.62
11,CCN(CC)C(=O)c1ccc2c(c1)nc(N1CCOCC1)n2Cc1ccccc1,-12.2
12,CCCCCC(=O)Nc1sc(C)c(C)c1C(N)=O,0.317
13,Cc1nn(-c2ccc(F)cc2)c(-n2cccc2)c1C(=O)N1CCOCC1,-2.3
14,Cc1nn(CC(=O)NCCN2CCC(Cc3ccccc3)CC2)c(=O)c2nn(-c3ccccc3)c(C)c12,-0.665
15,CCOC(=O)N1CCC(NC2c3ccccc3-c3ccccc32)CC1,1.38
16,Cc1nn(-c2ccc(F)cc2)c(O)c1/C=N/c1ccc(S(=O)(=O)N2CCCCC2)cc1,-2.89
17,Cc1ccc(C(=O)O)cc1NC(=O)c1ccc(Cn2nc(C)c(Br)c2C)o1,14.3
18,COc1ccc(C(=O)Nc2cc(Cl)ccc2C)c(OC)c1,-0.849
19,Cc1ccc(S(=O)(=O)NC(=O)C(=O)NS(=O)(=O)c2ccc(C)cc2)cc1,0.413
20,COCCN1C(=O)/C(=C/c2ccc(C(=O)O)cc2)S/C1=N\c1ccccc1,-2.15
21,CCCCn1c(=N)n(CC(O)c2ccc(OCC)cc2)c2ccccc21 (centres unmarked),5.6
22,CCCC/N=c1/c(-c2ccccc2)c(O)c1=O,-4.68
23,CSc1ccc(CCNC(=O)C(CCS(C)(=O)=O)N2Cc3ccccc3C2=O)cc1 (centres unmarked),-0.234
24,CC1=Nc2c(c(=O)[nH]c(=O)n2-c2ccc(Cl)cc2)C(C(F)(F)F)(C(F)(F)F)N1,-1.52
25,CN(C)c1ccc(S(=O)(=O)c2ccc(Cl)cc2)cc1,-1.29
26,Cc1nn(CC(=O)N2CCC(N3CCCCC3)CC2)c(=O)c2nn(-c3ccccc3)c(C)c12,-0.486

row,Compound,% Inhibition @ 10 uM [%]
1,O=C(COc1ccc(Cl)cc1)OCCCNC1C2CC3CC(C2)CC1C3 (centres unmarked),-0.0953
2,CC(C)Cn1cc(C(=O)NCCc2ccccc2Cl)c2c3ccccc3n(C)c2c1=O,-3.12
3,COc1ccc(-c2c(C)nn3c(-c4ccccc4)cc(C)nc23)cc1,-0.436
4,COc1ccc(CNC(=O)c2ccccc2Cl)cc1,-6.27
5,COc1ccc(S(=O)(=O)NCCCC(=O)O)cc1,-3.41
6,O=C1N=C(Nc2cccnc2)S/C1=C/c1cccc(F)c1,1.69
7,CCCNc1ncccc1NC(=O)CCC(=O)O,3.96
8,Brc1ccc(-c2nc(C3CCCCC3)no2)cc1,0.147
9,Cc1c(CNCC2CCCO2)c(C(=O)O)c(C)n1Cc1ccc(F)cc1Cl (centres unmarked),-5.49
10,CSc1nc(-c2ccco2)nn1C(=O)c1ccco1,-0.958
11,COc1ccccc1CC(=O)N1CCN(c2ccc(F)cc2)CC1,3.24
12,O=[N+]([O-])c1ccc2nc(O)c(/C=C(\O)c3ccccc3)nc2c1,-4.35
13,COc1ccc(C(=O)Nc2ccc([S+](O)Nc3nccs3)cc2)cc1 (centres unmarked),6.19
14,CCOc1ccc2nc(NC(=O)C3CCCN(c4ncnc5onc(C)c45)C3)sc2c1 (centres unmarked),5.98
15,COc1ccc(CNc2nc3cc(OC)c(OC)cc3c3nc(-c4cccnc4)nn23)cc1,-2.42
16,CC1=C(C(=O)OCc2ccccc2)C(c2cccs2)C(C#N)=C(N)O1 (centres unmarked),1.41
17,CCC(O)c1nc2ccccc2n1Cc1ccccc1C (centres unmarked),3.66
18,CC(Sc1cccc2cccc(C(=O)O)c12)C(=O)O (centres unmarked),0.64
19,COc1ccc(N(CC(=O)N2CCCCCC2)S(C)(=O)=O)c(OC)c1,-0.173
20,c1csc(-c2nnc(-c3ccc4c(c3)OCO4)o2)c1,1.72
21,CCCCC1CCC(C(=O)OCC(=O)c2ccc(Br)cc2)CC1 (centres unmarked),-2.42
22,COc1ccccc1-c1nc(-c2ccc(-c3ccc(C)cc3)nc2OC)no1,-1.33
23,CCN(CC)CCNC(=O)CN1CCCC1=O,2.86
24,O=C(O)c1cccn1Cc1ccc(Cl)cc1,-4.97
25,COc1ccc(C)cc1S(=O)(=O)N1CCN(c2cc(C)ccc2C)CC1,-2.19
26,Nc1ccc(Sc2nc3ccccc3s2)c(Cl)c1,0.0345

row,Compound,% Inhibition @ 10 uM [%]
1,CC(NC(=O)Cn1cccc1C(=O)c1ccccc1)c1ccccc1 (centres unmarked),2.76
2,CCOC(=O)C1CCCN(Cc2ccccc2)C1 (centres unmarked),1.48
3,COCCNC(=O)Cn1cnc2onc(-c3ccc(F)cc3)c2c1=O,-5.13
4,COc1cccc(-c2nc(CSCC(=O)NC3CCCC(C)C3C)c(C)o2)c1 (centres unmarked),0.689
5,C=Cc1ccc(Cn2c(C(=O)O)c(C=O)c3ccccc32)cc1,1.63
6,O=C(NCc1ccc2c(c1)OCO2)c1cnn2ccccc12,-2.92
7,COc1ccc2c(Cl)c(C(=O)Nc3ccc(C(C)=O)cc3)sc2c1,-2.45
8,CC1CN(S(=O)(=O)c2ccc(Cl)c(C(=O)Nc3ccccc3O)c2)CC(C)O1 (centres unmarked),-5.49
9,O=C(Nc1ccc(Cl)cn1)c1cc2c(Cl)nc3ccccc3c2s1,4.41
10,Cc1nc2ccc(S(=O)(=O)NCC(=O)NCc3ccc(F)cc3)cc2s1,-0.72
11,O=C(O)c1ccccc1NS(=O)(=O)/C=C/c1ccccc1,-6.68
12,CC1(C)[C@H]2CC=C(CN3CCN(Cc4ccccc4)CC3)[C@@H]1C2,3.48
13,CCC12CN3CC(C)(CN(C1)C3c1ccc(OCc3ccccc3)cc1)C2=O (centres unmarked),-10.8
14,CCOc1ccc(C(=O)N2CCN(c3ccccc3)CC2)cc1,2.43
15,CC1CCC(NC(=O)CCc2nc(O)c3c4c(sc3n2)CCCC4)CC1 (centres unmarked),-4.86
16,NC(=O)C1(N2CCCCC2)CCN(C(=O)c2ccc(F)cc2)CC1,-5.27
17,c1ccc(Cn2c(-c3ccccn3)nc3ccccc32)cc1,-4.18
18,COc1cc2c(cc1OC)C1C(C(=O)N3CC(C)CC(C)C3)c3ccccc3C(=O)N1CC2 (centres unmarked),-4.53
19,CCCCn1c(=O)[nH]c2nc3cc(NC(C)=O)ccc3nc2c1=O,-8.15
20,COc1ccc(-c2c(C)[n+]([O-])c(C)c(C)[n+]2[O-])cc1OC,0.147
21,CC(=O)NC1C(=O)N=C(SCC(=O)NC(C)c2ccccc2)NC1=O (centres unmarked),3.81
22,Cc1ccc(OCCNC(=O)/C=C/c2ccco2)cc1C,-1.24
23,Cc1ccccc1C1C(=O)N(C2CCCCC2)CC(=O)N1C1CCCCC1 (centres unmarked),-3.94
24,Cc1ccnc(NC2(C(F)(F)F)N=C(c3ccccc3)NC2=O)c1 (centres unmarked),0.00626
25,CCOc1cc(Br)c(C2C(C#N)=C(N)Oc3c2ccc2ccccc32)cc1OC (centres unmarked),3.06
26,c1ccc(-c2ccc(CN3CCN(c4ccccn4)CC3)cc2)cc1,-0.405

row,Compound,% Inhibition @ 10 uM [%]
1,Nc1cc(O)nc(SCC(=O)Nc2ccc(Br)cn2)n1,-3.28
2,CCOCCOc1nc2ccccc2s1,0.827
3,c1ccc2c(c1)[nH]c1nc3nncn3nc12,-8.44
4,Cn1nc(C(F)(F)F)cc1C(=O)NC12CC3CC(CC(C3)C1)C2,13.7
5,Cc1ccc([N+]2=C3SCCCN3C(O)(c3ccc(OC(F)F)cc3)C2)cc1 (centres unmarked),-3.02
6,Cc1ccc(C(=O)O)c2c1N[C@@H](c1ccccc1F)[C@H]1CC=C[C@@H]21,-4.59
7,COc1ccc2c(CNCCc3ccc(OC)c(OC)c3)c(C(=O)O)n(Cc3ccccc3C)c2c1,-4.37
8,O=C(Nc1c(-c2ccc(F)cc2)nc2ccccn12)c1ccc2ccccc2c1,0.813
9,CC(=O)N1CCN(C2CCC(C)CC2)CC1 (centres unmarked),2.91
10,Cc1ccc(C2CC(=O)NC3=C2C(=O)CC(C)(C)C3)cc1Br (centres unmarked),-7.27
11,O=C(NC1CCCCC1)c1nc(-c2ccncc2)no1,1.51
12,O=C(NCc1cccnc1)c1ccc(-c2ccccc2)cc1,3.53
13,Cc1ccccc1CS(=O)(=O)Cc1ccc(C(=O)N2CCOCC2)o1,-1.79
14,COc1ccc(NC(=O)c2cc(Cl)ccc2Cl)cc1OC,1.08
15,COC(=O)c1cc2cc(Br)ccc2[nH]1,4.31
16,CCCCNC(=O)c1c(C)c(C(=O)OCC)n(CC)c1C,1.72
17,COc1ccc(C(=O)CSc2nc(-c3ccccc3)c[nH]2)cc1,2.9
18,COc1ccc(S(=O)(=O)N2CCCCC2)cc1-c1nnc2c3ccccc3c(C)nn12,2.31
19,CCCS(=O)(=O)NCCc1cc2ccc(C)cc2nc1O,-1.7
20,CCOC(=O)C(/C=N/C12CC3CC(CC(C3)C1)C2)=C(\O)OCC,-5.28
21,CC1=C(C)CC2C(=O)N(c3ccccc3F)C(=O)C2C1 (centres unmarked),-0.185
22,Cc1ccccc1-c1noc(CCC(=O)NCC(C)C)n1,0.366
23,Cc1ccc(Cn2ncc3ccccc32)cc1,-7.24

# Source: PMC6919601, “Identification of Plasmodium dipeptidyl aminopeptidase allosteric inhibitors by high throughput screening” (PLoS ONE, 2019)
